Assay results reported in publication PMC4336329 (PLoS ONE, 2015).
The campaign covered roughly 310,000 compounds. About 2,200 (0.71%) showed an effect of 50% or more. The effect is printed as a negative number. The list shows a part of the results.

biological target: human ether-à-go-go-related gene (hERG) potassium channel (human, UniProt Q12809); assay: primary screen, population patch clamp on CHO cells stably expressing hERG
Sequence (Q12809 whole entry, looked up): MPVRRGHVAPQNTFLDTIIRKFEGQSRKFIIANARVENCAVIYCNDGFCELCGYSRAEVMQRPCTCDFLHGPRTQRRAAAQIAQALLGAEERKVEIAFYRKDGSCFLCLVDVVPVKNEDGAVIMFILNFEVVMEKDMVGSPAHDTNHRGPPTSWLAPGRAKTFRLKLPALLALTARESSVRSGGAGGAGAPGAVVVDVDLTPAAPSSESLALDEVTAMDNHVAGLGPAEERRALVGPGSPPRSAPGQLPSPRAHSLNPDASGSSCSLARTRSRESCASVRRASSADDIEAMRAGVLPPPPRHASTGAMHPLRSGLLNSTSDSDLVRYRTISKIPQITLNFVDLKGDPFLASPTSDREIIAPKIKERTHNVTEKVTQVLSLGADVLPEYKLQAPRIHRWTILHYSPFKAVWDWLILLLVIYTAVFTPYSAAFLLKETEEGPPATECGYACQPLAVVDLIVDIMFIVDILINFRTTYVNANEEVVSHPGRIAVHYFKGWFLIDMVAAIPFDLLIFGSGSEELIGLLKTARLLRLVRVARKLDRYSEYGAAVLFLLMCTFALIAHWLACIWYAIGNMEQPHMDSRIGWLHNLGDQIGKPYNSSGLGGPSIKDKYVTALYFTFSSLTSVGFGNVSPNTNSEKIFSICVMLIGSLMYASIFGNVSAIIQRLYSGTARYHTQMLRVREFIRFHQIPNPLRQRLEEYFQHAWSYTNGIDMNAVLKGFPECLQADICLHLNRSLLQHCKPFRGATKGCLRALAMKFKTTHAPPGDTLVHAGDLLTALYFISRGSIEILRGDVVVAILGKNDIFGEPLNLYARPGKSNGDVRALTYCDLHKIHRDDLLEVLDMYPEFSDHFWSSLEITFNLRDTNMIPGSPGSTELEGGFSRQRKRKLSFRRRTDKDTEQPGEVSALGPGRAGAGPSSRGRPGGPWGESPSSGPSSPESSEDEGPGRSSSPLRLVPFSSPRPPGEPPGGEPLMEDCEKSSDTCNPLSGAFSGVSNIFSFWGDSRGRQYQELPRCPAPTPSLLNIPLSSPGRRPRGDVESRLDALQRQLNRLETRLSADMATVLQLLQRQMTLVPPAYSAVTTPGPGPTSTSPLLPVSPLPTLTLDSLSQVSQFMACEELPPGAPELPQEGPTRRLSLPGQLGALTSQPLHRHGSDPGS

Row | Structure (SMILES) | hERG current change (%, negative = inhibition) at 1uM
1 | C#CCOCCOCCOCCNc1nc(N2CCN(C(=O)[C@H]([C@@H](C)CC)n3cc([C@@H](N)CO)nn3)CC2)nc(N2CCN(C(=O)[C@H](Cc3cc4ccccc4[nH]3)n3cc([C@@H](N)C(C)CC)nn3)CC2)n1.Cl (stereo partly shown) | -1.28%
2 | CSc1cccc(NC(=O)C2(S(=O)(=O)c3ccc(C)cc3)CC2)c1 | 5.37%
3 | Cc1cc(/C=N\O)c(C)n1-c1ccncc1 | 11%
4 | COc1ccc(-c2nc(CS(=O)CC(=O)N3CCCC3)c(C)o2)cc1 (stereo not shown) | 11.9%
5 | CCCn1nc(NC(=O)C2CCCO2)c2cc3ccc(C)cc3nc21 (stereo not shown) | 12.8%
6 | COc1cc(C2SCCS2)cc(Br)c1Oc1ncccc1[N+](=O)[O-] | 10.3%
7 | CCN1C(=O)[C@H]2[C@@H](c3ccc(-c4ccc5c(c4)OCO5)c(OC)c3)N[C@@](CC(C)C)(C(=O)OC)[C@H]2C1=O.O=C(O)C(F)(F)F | -4.19%
8 | CCCCCN=C(C)c1c(O)c2ccccc2oc1=O | -1.14%
9 | O=C(COc1ccc2ccccc2c1)N1CCN(C(=O)c2ccc([N+](=O)[O-])cc2)CC1 | -69.3%
10 | COc1ccccc1NC(=O)CSc1nc2nc(C)cc(C)c2c(=O)[nH]1 | 4.96%
11 | Cc1cc(OCc2cc(C(=O)N(C)C3CCOC3)no2)cc(C)c1Cl (stereo not shown) | -2.5%
12 | C/C(=N\NC(=O)c1ccc(CSc2nncn2C)cc1)c1ccc(C#N)cc1 | -0.847%
13 | Cc1ccc(CC(=O)Nc2ccncc2)cc1 | 12.9%
14 | O=C(COc1ccc(S(=O)(=O)NCc2ccccc2)cc1Cl)N1CCOCC1 | 19.3%
15 | COc1ccc(NC(=O)c2cccc(N3C(=O)C4C5C=CC(C5)C4C3=O)c2)cc1Cl (stereo not shown) | 12%
16 | COc1ccc(N2CCN(S(=O)(=O)c3c(C)noc3/C=C/N(C)C)CC2)cc1 | -0.468%
17 | NC(Cc1c[nH]c2ccc(OCc3ccccc3)cc12)C(=O)O (stereo not shown) | 17.3%
18 | COc1cc2c(cc1OC)CN(C(=S)Nc1c(C)cccc1C)CC2 | 11.2%
19 | CC(=O)NC12CC3CC(C1)CC(C(=O)Oc1ccc(N(C)S(=O)(=O)c4cc(C)ccc4C)cc1)(C3)C2 | 9.8%
20 | Cc1cc2nc(/C(C#N)=C/c3ccncc3)[nH]c2cc1C | -7.28%
21 | Cc1nc(N2CCCCC2)c2c(-c3cccs3)csc2n1 | 8.05%
22 | COc1ccc2c(c1)CCc1c(C(=O)Nc3ccn(Cc4ccc(C)cc4)n3)noc1-2 | 9.99%

Row | Structure (SMILES) | hERG current change (%, negative = inhibition) at 1uM
23 | COCCOC(=O)C1=C(C)OC(N)=C(C(=O)OC)C12C(=O)Nc1ccccc12 (stereo not shown) | 8.81%
24 | CN1C(C)(C)CC(NC(=O)c2ccco2)CC1(C)C | -4.88%
25 | c1ccc(OCCCn2nnc(-c3ccc(N4CCOCC4)cc3)n2)cc1 | 20.5%
26 | O=C1CCC(C(=O)N(Cc2ccco2)C2(C(=O)NC3CCCC3)CCCCC2)N1 (stereo not shown) | 14.5%
27 | Cc1ccc2c(c1)N(CCCC(=O)NCC1COc3ccccc3O1)C(=O)CO2 (stereo not shown) | -6%
28 | CC(C)[C@H](NC(=O)N1CCn2c1nc1ccccc12)C(=O)N[C@H](C(=O)O)c1ccccc1 | 4.73%
29 | Cc1ccc(NC(=O)c2ccc(Cn3cc(Br)cn3)o2)cc1 | -2.24%
30 | CC1(c2ccccc2Br)NC(=O)N(CC(=O)Nc2ccc(S(N)(=O)=O)cc2)C1=O (stereo not shown) | 12.7%
31 | O=C(CCc1ccccc1)N1CCN(c2ccc([N+](=O)[O-])cc2)CC1 | -67.4%
32 | O=C(CN(Cc1ccccc1)S(=O)(=O)c1ccc(F)cc1)NCc1ccncc1 | -9.19%
33 | CCC(=O)c1ccc(OCc2ccc(C(=O)OC)cc2)c(OC)c1 | -1.16%
34 | COc1cc(OC)c(OC)cc1CNCc1ccco1 | 10.9%
35 | COc1ccccc1OCCNC(=O)C1CC(=O)N(Cc2ccccc2)C1 (stereo not shown) | 4.51%
36 | O=C(CC(=O)NC1CCCCC1)N/N=C/c1ccccc1[N+](=O)[O-] | 7.42%
37 | O=C(Nc1cccc(O)c1)C1CC(c2cccc(Br)c2)=NO1 (stereo not shown) | 11.7%
38 | Cc1cccc(C(=O)N2CCCC(Nc3ccc(F)c(F)c3)C2)n1 (stereo not shown) | 7.06%
39 | O=C(O)C1=C[C@H](c2ccc(F)cc2)C[C@H](OCCCCO)O1 | 15.5%
40 | CC(C)c1ccccc1OCC(=O)N1CCCCCCC1 | 16.9%
41 | COc1ccccc1NC(=O)COc1ccc(C(=O)OCC(=O)N2CCCC2=O)cc1OC | 10.5%
42 | COC(=O)c1ccc(OCC(O)CN(CCO)CCO)cc1 (stereo not shown) | 5.26%
43 | CC(=O)c1ccc2c(c1)Cc1cc(C(C)=O)ccc1-2 | 16.4%
44 | O=C(CN1CCC(NC(=O)c2ccco2)CC1)Nc1cccc2ccccc12 | 6.35%

Row | Structure (SMILES) | hERG current change (%, negative = inhibition) at 1uM
45 | O=C(O)C(=O)O.O=C(c1ccccc1)N1CCN(CC2CC=CCC2)CC1 (stereo not shown) | -9.14%
46 | COc1cccc(N2CCN(S(=O)(=O)c3cccc4nsnc34)CC2)c1 | 0.986%
47 | O=C(NCCCN1CCCC1)c1ccc(CSCc2cccc(Cl)c2)o1 | -30.4%
48 | O=C(Nc1cccc(Cl)c1Cl)c1snnc1-c1ccccc1 | 9.21%
49 | O=C(c1ccccc1)c1cccn1CC(=O)N1CCN(C2CCCCC2)CC1 | -36.1%
50 | Cc1ccc(OCC(=O)NNC(=O)c2ccoc2C)c(Br)c1 | 7.4%
51 | S=C(c1ccc2c(c1)OCO2)N1CCCC1 | 10.6%
52 | CC(C)C[C@H](NC(=O)c1nc[nH]c1C(=O)N1CCN(C(=O)OC(C)(C)C)CC1)C(=O)OCc1ccccc1 | 7.3%
53 | CCCCOC(=O)c1ccc(NC(=O)CSCc2n[nH]c(=O)[nH]2)cc1 | 9.96%
54 | COc1ccc(OC)c(NS(=O)(=O)c2ccc3c(c2)n(C)c(=O)n3C)c1 | -3.36%
55 | COc1ccc(Br)c2c1C(=O)CC2 | 4.91%
56 | O=C(N/N=C/C=C/c1cccc([N+](=O)[O-])c1)C(O)c1ccccc1 (stereo not shown) | 8.51%
57 | CC(=O)c1c(C)n(Cc2ccccc2)c2ccc(O)cc12 | 3.98%
58 | NC(=O)CSP(=O)(c1ccccc1)c1ccccc1 | 13.1%
59 | Cn1cnnc1SCc1ccc(C#N)cc1 | 10.6%
60 | CCOC(=O)c1ccc(NC(=O)Nc2cc(C)on2)cc1 | 14.9%
61 | Cc1ccc(NC(=O)C2C(c3ccccc3)C=CC(c3ccccc3)C2C(=O)O)cc1 (stereo not shown) | 10%
62 | Cc1ccc(S(=O)(=O)N2CCN(C(=O)C3CCN(C(=O)c4ccc(F)cc4)CC3)CC2)c(C)c1 | -16.8%
63 | Cc1ccc(NC(=O)CN2C(=O)C3CCCCN3C(=O)c3ccccc32)cc1 (stereo not shown) | 3.84%
64 | O=C(O)CCc1ccc(-c2cccs2)n1NC(=O)c1ccco1 | 10.2%
65 | O=C(Nc1ccccc1Cl)c1cccc(NC(=O)c2cccs2)c1 | -13.9%
66 | Cc1ccc(NC(=O)c2ccc(-n3cccn3)c([N+](=O)[O-])c2)cc1 | -15%

Row | Structure (SMILES) | hERG current change (%, negative = inhibition) at 1uM
67 | CCNc1nc(NCC)nc(OCCNS(=O)(=O)c2ccccc2)n1 | 16.2%
68 | Cn1c2ccccc2n2c(=O)c(=O)n(CC(=O)c3ccc(F)cc3)nc12 | 6.52%
69 | COC(=O)c1ccc(N2C(=O)CC(N3CCC(O)(c4ccc(Br)cc4)CC3)C2=O)cc1 (stereo not shown) | 1.17%
70 | Cc1nc(-c2cccnc2)sc1C(=O)Nc1ccc(C(F)(F)F)cc1 | 7.49%
71 | CCn1c(CSc2nnc3ccccn23)nc2cc(C(=O)O)ccc21 | 4.68%
72 | CCC(C)(C)n1nnnc1C(c1cc(OC)ccc1OC)N1CCC(C(N)=O)CC1 (stereo not shown) | 10.6%
73 | COC(=O)C1C(=O)c2c([nH]c(C(=O)OCCSC)c2C)CC1C (stereo not shown) | 4%
74 | NC(=O)c1nn(-c2ccccc2)nc1NC(=O)CN1CCCC1 | 3.23%
75 | COc1ccc(C(C)C)cc1S(=O)(=O)n1cnc(C)c1 | -3.56%
76 | COc1ccc(CCNC(=O)Cc2ccc(OCc3ccccc3)c(OC)c2[N+](=O)[O-])cc1OCc1ccccc1 | 11%
77 | Cc1ccc(S(=O)(=O)N(C)c2ccc(OCC(=O)Nc3nc4c(ccc5ccccc54)s3)cc2)cc1 | 7.09%
78 | O=C1COc2ccc(S(=O)(=O)NCc3ccccc3)cc2N1 | 17.3%
79 | CCN(CC)S(=O)(=O)c1cc(C(=O)Oc2ccccc2OC)ccc1OC | -18.7%
80 | CCOC(=O)N1CCC(N2Cc3cccc(C(=O)NCc4ccccn4)c3C2=O)CC1 | -4.03%
81 | O=[N+]([O-])c1ccccc1S(=O)(=O)Nc1ccc(-c2ccc(N3CCOCC3)nn2)cc1 | 4.36%
82 | Cn1c(N)c(C(=O)COC(=O)COc2ccc3ccccc3c2)c(=O)n(C)c1=O | -1.68%
83 | Cc1ncc(CO)c2cc(C(N)=O)c(=Nc3ccccc3)oc12 | -7.38%
84 | CCCS(=O)(=O)c1cscc1NC(=O)c1c(-c2c(F)cccc2Cl)noc1C | 8.5%
85 | COc1ccc(/C=C/C(=O)NCc2ccccn2)cc1 | 1.42%
